Out of some 48,000 compounds screened, about 1,200 (2.5%) were called active. Roughly 2% stayed inconclusive and do not appear here.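 The calls were made as follows: active = activation of at least 60% and not above a set upper limit (about 1 call in 100 departs from these limits); inconclusive = activation of 40% to 60%, or above that upper limit; inactive = activation under 40%.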 This is one part of the list.

This assay deals with Probable G-protein coupled receptor 32 (Homo sapiens) (UniProt O75388). Nature of the assay: qHTS for Agonists of Human Resolvin D1 Receptor DRV1. Also: 0% is about no effect. To be noted: CHO-K1 GPR32 beta-arrestin PathHunter luminescence, 90 min; at 76.9 µM; active compounds read high; zero percent set by DMSO-only wells. The gist of the method: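 Step 1: seed CHO-K1 GPR32 beta-arrestin cells, 2,500/well, overnight at 37 °C. Step 2: add compounds, 90 min at 37 °C. Step 3: detection reagent, 1 h ambient, then luminescence.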
UniProt O75388, sequence (O75388 whole entry, looked up): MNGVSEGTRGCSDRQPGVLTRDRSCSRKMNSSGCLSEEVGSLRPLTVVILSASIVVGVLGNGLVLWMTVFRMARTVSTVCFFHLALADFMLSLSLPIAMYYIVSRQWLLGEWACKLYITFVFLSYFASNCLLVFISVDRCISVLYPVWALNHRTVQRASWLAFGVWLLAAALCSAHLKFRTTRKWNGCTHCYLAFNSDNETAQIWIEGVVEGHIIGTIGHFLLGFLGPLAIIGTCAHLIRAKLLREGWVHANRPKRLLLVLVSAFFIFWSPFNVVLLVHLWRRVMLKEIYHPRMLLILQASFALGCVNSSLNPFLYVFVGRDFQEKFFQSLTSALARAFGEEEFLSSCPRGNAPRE
On the technique in general: qHTS replaces the single test concentration by a dilution series.
For the molecule `Cc1ccc2[nH]c(=O)c3cc(C(=O)NCCc4ccc(Cl)cc4)sc3c2c1`, the activation was inactive: -9.77%.
The result for `O=C1c2oc3ccccc3c(=O)c2C(c2cccc(Cl)c2)N1c1ccccn1` (centres undefined) reads inactive: -7.36%.
Under `c1ccc(OCCn2c(COc3ccccc3)nc3ccccc32)cc1` stands inactive: 6.06%; under `CC1=C(C(=O)Nc2ccc(C)cc2C)C(c2ccccc2F)n2nc(SCC(=O)c3ccc(C)cc3)nc2N1` (centres undefined), inactive: -2.3%.
Under `O=S(=O)(Nc1ccc(-c2ccc(N3CCCC3)nn2)cc1)c1cc(F)ccc1F` stands inactive: 33.5%; under `CN1CCN(C(CNC(=O)C(=O)Nc2cccc(Cl)c2)c2ccc3c(c2)OCO3)CC1` (centres undefined), inactive: -15.2%; under `O=C(Cn1c(=O)c2cccn2c2cccnc21)NCc1ccccc1F`, inactive: -8.13%.
Regarding `Cc1cc2nc(-c3ccc(OCc4ccccc4)cc3)cc(C(F)(F)F)n2n1`, the activation is inactive: 9.83%.
On to `CCc1ccc(NC(=O)c2cnc3sc(N4CCCC4)nn3c2=O)cc1`, for which the activation was inactive: 6.92%.
Under `COc1ccccc1NC(=O)C1CCC(CNS(=O)(=O)c2ccc3c(c2)CC(C)N3C(C)=O)CC1` (centres undefined) stands inactive: 20.3%; under `O=C(Nc1ccc(S(=O)(=O)N2CCCCCC2)cc1)c1cc(=O)c2ccccc2o1`, inactive: -5.47%; under `Cc1cc(-n2c(C)nc3ccccc3c2=O)ccc1NC(=O)c1ccc([N+](=O)[O-])cc1`, inactive: 23.3%.
Regarding `CC(C)c1ccc(OCc2cc(=O)n3c(-c4ccccc4)csc3n2)cc1`, the activation was inactive: 39.1%.
Take `CCOC(=O)c1ccc(NC(=O)c2nn(C)c3c2COc2ccccc2-3)cc1`: the activation was inactive: -7.51%.
The result for `Cc1ccc(S(=O)(=O)c2nnn3c2nc(NCc2ccccc2Cl)c2sccc23)cc1` reads inactive: -20.4%; that for `COc1ccc(NC(=O)CCCN2C(=O)COc3ccc(C)cc32)cc1OC`, inactive: -15.8%.
Under `COc1cc(-c2cc(OC)c3c(C)oc(C)c3c(=O)c2)ccc1OC(=O)c1cccc(Cl)c1` stands inactive: -20.5%; under `CC(C)(C)OC(=O)N1CCC(c2c(C(=O)N3CCN(C(=O)c4ccco4)CC3)cnn2-c2ccccc2Cl)CC1`, inactive: 0.553%; under `COCCCNC(=O)c1ccc2c(c1)NC(=O)C(C(C)C)N2` (centres undefined), inactive: -6.27%.
For `CCOC(=O)c1c(NC(=O)CSc2cn(CCNC(=O)c3ccccc3F)c3ccccc23)sc2c1CCCC2`, the activation was inactive: -2.26%.
As to `O=C(Cn1c(=O)n(-c2ccc(Cl)cc2)c(=O)c2c3c(sc21)CCC3)c1ccccc1`, the activation is inactive: 20.9%.
Turning to `CCCCN1CCCC[C@H]1C(=O)Nc1c(C)cccc1C`, the activation was inactive: 5.77%.
For the molecule `CC(C)(C)NC(=O)c1oc2ccccc2c1NC(=O)c1ccc(F)cc1`, the activation was inactive: 11.4%.
Regarding `CCc1ccc(S(=O)(=O)c2nnn3c2nc(NCCNC(C)=O)c2cc(Cl)ccc23)cc1`, the activation was inactive: -4.96%.
The result for `Cc1ccccc1C(=O)c1cccn1CC(=O)NCc1cccc(Cl)c1` reads inactive: -34.3%; that for `COc1ccc(CCN2C(=O)CN(C3CCC(C)CC3)C(=O)C2c2ccc(OC(C)C)c(OC)c2)cc1OC` (centres undefined), inactive: -12.7%; that for `Cc1ccc(Cn2cc(CCC(=O)NCc3ccc(OC(C)C)cc3)c3ccccc32)cc1`, inactive: -26.1%.
The result for `CCCCNC(=O)C(CC)Sc1nc2ccccc2c(=O)n1CCc1ccc(OC)c(OC)c1` (centres undefined) reads inactive: -0.415%.
Under `COCCN(CCOC)c1ncnc2c1c(-c1ccccc1)cn2-c1ccc(C)c(Cl)c1` stands inactive: -38%; under `Cn1c(SCc2ccccc2F)nc2c([nH]c3ccccc32)c1=O`, inactive: 0.0597%.
Turning to `CCc1nn(CCCC(=O)NC(C)c2ccccc2)c(=O)c2cc3occc3n12` (centres undefined), the activation is inactive: -5.97%.
Under `Cc1ccc2c(c1)N(CCCC(=O)NCc1cccc(F)c1)C(=O)CO2` stands inactive: -19.4%; under `O=C(c1ccccc1)c1ccccc1`, inactive: -1.35%; under `COc1ccccc1OCC(=O)Nc1c(C(=O)c2ccc(F)cc2)oc2ccccc12`, inactive: -8.27%.
Under `CSc1ncc(C(=O)N2CCN(c3cccc(C(F)(F)F)c3)CC2)c(C)n1` stands inactive: 35.4%.
The result for `COc1ccc(NC(=O)C(NC(=O)/C=C\c2ccc3c(c2)OCO3)c2ccccc2)cc1` (centres undefined) reads inactive: -17%; that for `Cc1ncc(CO)c(CN)c1O`, inactive: -9.09%; that for `Cc1ccc(NC(=O)C2CCN(S(=O)(=O)c3cc(-c4noc(C)n4)ccc3C)CC2)c(C)c1`, inactive: -7.5%.
For `COc1ccc(C2CC(=O)c3cc(-c4nc(-c5cccc([N+](=O)[O-])c5)cs4)c(=O)n(-c4ccc(OC)cc4)c3C2)cc1` (centres undefined), the activation was inactive: 3.57%.
The result for `COc1ccc(C2N3CC4(C)CN2CC(c2ccccc2)(C3)C4=O)cc1OC` (centres undefined) reads inactive: 9.6%; that for `O=C(CSc1c2c(nc3cc(Cl)ccc13)CCCC2)NCc1ccccc1Cl`, inactive: -18.1%; that for `CCCCCCCCCCCCCCCCCCNC(=O)OCC(COP(=O)([O-])OCC[n+]1ccsc1)OC` (centres undefined), inactive: -4.7%.
Under `CCCN(CCC)CCCNC(=O)c1cc2c(=O)[nH]c3ccccc3c2n1C` stands inactive: -7.04%; under `COc1cccc(-n2c(=O)c3sc4ccccc4c3n(CC(=O)Nc3ccccc3C)c2=O)c1`, inactive: -16.4%.
`CCc1ccc(Oc2c(C(F)(F)F)oc3c(CN4CCCC(C)C4)c(O)ccc3c2=O)cc1` (centres undefined): the activation was inactive: -10%.
Under `CCc1ccc(NC(=O)c2nn(-c3ccc(OC)cc3)c(=O)c3c2c2ccccc2n3C)cc1` stands inactive: 0.198%; under `COc1ccc(N2CCN(c3csc4ccccc4c3=O)CC2)cc1`, inactive: -50.2%; under `CCCCOc1ccc(Cn2c(=O)sc3ccccc32)cc1`, inactive: -17.3%.
Under `Cc1c(C(=O)Nc2ccc(F)cc2F)sc2nc3n(c(=O)c12)N=C(c1ccccc1)CS3` stands inactive: -5.74%; under `Cn1nccc1C(=O)NCc1ccc2c(c1)CCN2C(=O)c1ccc(Cl)cc1`, inactive: -4.25%; under `CC(Sc1oc(-c2cccs2)nc1S(=O)(=O)c1ccccc1)c1ccccc1` (centres undefined), inactive: -19.8%.
Regarding `O=C1c2ccccc2-c2onc3c(NCCO)cc(NC4CCCCC4)c1c23`, the activation is inactive: -51.4%.
The result for `COc1ccc(C(CNC(=O)COc2cc(C)cc(C)c2)N2CCOCC2)cc1` (centres undefined) reads inactive: -9.48%; that for `CCOC(=O)c1ccccc1NC(=O)CCc1nc(-c2ccc(C)cc2)no1`, inactive: -16.6%; that for `CC(CNC(=O)CCS(=O)(=O)c1cc2c(cc1Cl)NC(=O)CO2)c1ccccc1` (centres undefined), inactive: -12%.
Under `Cc1ccc(NC(=O)CSc2nc(=O)cc(N)n2CCc2ccccc2)cc1` stands inactive: -21.7%.
The result for `CCOc1nc2cccc(C(=O)O)c2n1Cc1ccc(-c2ccccc2-c2nn[nH]n2)cc1` reads inactive: 3.04%; that for `CCc1ccccc1NC(=O)C1CCCN(c2cnccn2)C1` (centres undefined), inactive: 8.58%; that for `C=C(C)C(=O)OCC(O)CO` (centres undefined), inactive: -0.968%.
With `O=C(Nc1cccc(NC(=O)c2ccccc2Cl)c1)c1cccc(Br)c1`, the activation is inactive: -17.6%.
Take `CCOc1ccc(N2CC(C(=O)NCc3nnnn3-c3ccc(C)c(C)c3)CC2=O)cc1` (centres undefined): the activation is inactive: -12.8%.
The result for `CCOc1ccc(NS(=O)(=O)c2ccc3[nH]cc(C(=O)NCC4CCCO4)c(=O)c3c2)cc1` (centres undefined) reads inactive: -1.07%; that for `COC(=O)CN1C(=O)CSc2ccc(S(=O)(=O)Nc3cccc(Cl)c3C)cc21`, inactive: 4.33%.
Under `Nc1c(-c2nc(-c3ccc(F)cc3)cs2)c2ccccn2c1C(=O)c1ccc2c(c1)OCO2` stands inactive: 0.311%; under `CC(=O)c1ccc(N2CCN(C(=O)CCS(=O)(=O)c3ccc4c(c3)oc(=O)n4C)CC2)cc1`, inactive: -10.2%; under `COc1ccc(NCc2cc3ccc(OC)cc3n(CC(=O)Nc3cc(Cl)ccc3C)c2=O)cc1`, inactive: -35.7%.
Under `Cc1cc(=O)n(CC(=O)N2CCN(c3ccc(F)cc3)CC2)c2c1c(C)nn2C` stands active: 71%.
In the case of `CC(Oc1ccccc1F)C(=O)Nc1ccc(-c2nc3ccccc3s2)cc1` (centres undefined), the activation was inactive: 30.6%.
Take `CCSc1ncc(Cl)c(C(=O)Nc2sc3c(c2C(=O)NC)CCCC3)n1`: the activation was inactive: -4.25%.
The result for `CC1CCc2c(sc(NC(=O)c3cc4nc(-c5ccc(Cl)cc5)cc(C(F)(F)F)n4n3)c2C#N)C1` (centres undefined) reads inactive: -1.49%; that for `Nc1ccc(C(=O)O)c(O)c1`, inactive: -8.73%; that for `CCc1cccc(NC(=O)CN(C)S(=O)(=O)c2cccc3cccnc23)c1`, inactive: 3.82%.
Take `CCC1CCCCN1C(=O)c1sc(-n2nc(C)c(Cc3ccccc3)c2C)nc1C` (centres undefined): the activation is inactive: -3.21%.
Under `COc1ccc(S(=O)(=O)c2cnc(SCC(=O)Nc3cc(F)ccc3C)[nH]c2=O)cc1Cl` stands inactive: -6.79%.
The result for `Cc1ccc(Cl)cc1NC(=O)CN1C(=O)C(C)(C)c2cc(S(=O)(=O)N3CCCCC3)ccc21` reads inactive: 3.65%; that for `Cc1cccc(-c2nc3c4ccccc4nc(NCc4ccc(F)cc4)n3n2)c1`, inactive: -10.9%; that for `CCOC(=O)c1c(S(=O)(=O)NCC(=O)NCc2ccccc2)c(C)n(C)c1C`, inactive: -10.4%.
The result for `CC(C)CCN(C(=O)Nc1ccc(Cl)c(Cl)c1)C(C)c1cccs1` (centres undefined) reads inactive: 1.81%; that for `COc1cccc(OC(=O)CSc2nnc(-c3ccc4c(c3)OCO4)o2)c1`, inactive: -3.65%.
In the case of `COc1cc(/C=C/c2nc(C#N)c(N3CCC(C)CC3)o2)cc(OC)c1OC`, the activation was inactive: -25%.
Take `CCOc1ccccc1NC(=O)C(C)N(c1ccccc1)S(C)(=O)=O` (centres undefined): the activation was inactive: -0.0605%.
Under `CCc1ccc2c(c1)NC(c1ccc(OC)cc1)=NC(c1ccncc1)=N2` stands inactive: -20.2%.
With `CCOC(=O)c1ccc(OC(=O)c2cn(-c3cccc(OC)c3)c(=O)c3ccccc23)cc1`, the activation was inactive: -14.3%.
Under `Cc1ccccc1CSc1nc2cccnc2n1Cc1ccc(C(=O)NCCc2cccs2)cc1` stands inactive: -22.1%.

The values above are taken from PubChem BioAssay AID1346428 (National Center for Advancing Translational Sciences (NCATS), 2018).
